Assay results from the supplement of paper PMC4604168 (melanoma cell lines).
This is one part of the list. Most values come without repeats; read them as rough.

What was measured:
Experiment in all cases: cell count relative to DMSO control; melanoma cells; higher = more viable cells
Conditions in all cases: library dose: standard library concentration; 72 h
G361 = test system: G361
IPC-298 = test system: IPC-298
IST-MEL1 = test system: IST-MEL1
LB2518-MEL = test system: LB2518-MEL
LOXIMVI = test system: LOXIMVI
MEL-HO = test system: MEL-HO
MZ2-MEL = test system: MZ2-MEL
MeWo = test system: MeWo
RPMI7951 = test system: RPMI7951
RVH-421 = test system: RVH-421
SkMel28 = test system: SkMel28
SkMel2 = test system: SkMel2
SkMel30 = test system: SkMel30
SkMel5 = test system: SkMel5
UACC257 = test system: UACC257
UACC62 = test system: UACC62
WM115 = test system: WM115
WM1716 = test system: WM1716
WM3526 = test system: WM3526
WM1745 = test system: WM1745
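Note: cells treated in 1,536-well plates, then fixed and DAPI-stained, with nuclei counted from automated high-throughput microscope images.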

| SMILES | cell count (G361) [%] | cell count (IPC-298) [%] | cell count (IST-MEL1) [%] | cell count (LB2518-MEL) [%] | cell count (LOXIMVI) [%] | cell count (MEL-HO) [%] | cell count (MZ2-MEL) [%] | cell count (MeWo) [%] | cell count (RPMI7951) [%] | cell count (RVH-421) [%] | cell count (SkMel28) [%] | cell count (SkMel2) [%] | cell count (SkMel30) [%] | cell count (SkMel5) [%] | cell count (UACC257) [%] | cell count (UACC62) [%] | cell count (WM115) [%] | cell count (WM1716) [%] | cell count (WM3526) [%] | cell count (WM1745) [%] |
| --- | --- | --- | --- | --- | --- | --- | --- | --- | --- | --- | --- | --- | --- | --- | --- | --- | --- | --- | --- | --- |
| Cn1cnc2c(F)c(Nc3ccc(Br)cc3Cl)c(C(=O)NOCCO)cc21 [selumetinib] + O=C(O)C(=O)Nc1sc2c(c1C(=O)O)CCNC2 [TCS401] (first compound 0.075 µM, partner dose 8.33333 µM) | 82.9 | 54.4 | 111 | 54 | 104 | 96.1 | 76.8 | 71.6 | 118 | 85.8 | 47.5 | 61.7 | 72.1 | 66.8 | 80.5 | 78.7 | 70.9 | 80 | 51 |  |
| Cn1cnc2c(F)c(Nc3ccc(Br)cc3Cl)c(C(=O)NOCCO)cc21 [selumetinib] + CCc1ccc(CCOc2ccc(CC3SC(=O)NC3=O)cc2)nc1 [pioglitazone] (first compound 0.075 µM, partner dose 10 µM) | 67.8 | 49.6 | 77.1 | 48.7 | 118 | 74.6 | 67.5 | 63.6 | 129 | 62.2 | 52.8 | 52.5 | 54.7 | 70.8 | 85.8 | 77 | 64.4 | 80.6 | 56.1 |  |
| CCN(CC)CCNC(=O)c1c(C)[nH]c(/C=C2\C(=O)Nc3ccc(F)cc32)c1C [sunitinib] + O=C(O)c1ccc(-c2c[nH]c3ncc(-c4ccccc4)cc23)cc1C1CCCC1 [GSK650394] (first compound 2 µM, partner dose 0.8 µM) | 54.8 | 72.4 | 74.9 | 68.7 | 89.5 | 78.5 | 96 | 63.8 | 72.5 | 78.1 | 56.3 | 58.8 | 63.7 | 51.8 | 87.8 | 61.8 | 40 | 78.5 | 60.4 | 44.8 |
| C[C@]1(O)C[C@@H](c2nc(-c3ccc4ccc(-c5ccccc5)nc4c3)c3c(N)nccn32)C1 + O=c1cc(-c2cccc3c2Sc2ccccc2S3)oc(N2CCOCC2)c1 [KU55933] (first compound 2 µM, partner dose 5 µM) | 69.1 | 75.7 | 91.1 | 72.7 | 90.4 | 81.1 | 102 | 64.8 | 66 | 109 | 52 | 55.6 | 93.3 | 76.3 | 82.6 | 56.9 | 114 | 85.1 | 53.1 |  |
| COc1cc([C@@H]2c3cc4c(cc3[C@@H](O[C@@H]3O[C@@H]5CO[C@@H](C)O[C@H]5[C@H](O)[C@H]3O)[C@H]3COC(=O)[C@H]23)OCO4)cc(OC)c1O [etoposide] + Cc1cc(N2CCOCC2)cc2[nH]c(-c3c(NC[C@@H](O)c4cccc(Cl)c4)cc[nH]c3=O)nc12 [BMS536924] (first compound 0.1 µM, partner dose 1 µM) | 95.1 | 82.8 | 104 | 98.8 | 74.9 | 98.1 | 71.9 | 74.1 | 107 | 108 | 79.2 | 74.5 | 98.8 | 78.8 | 89.8 | 86.9 | 71.1 | 74.6 | 83.7 | 54.8 |
| COc1cc([C@@H]2c3cc4c(cc3[C@@H](O[C@@H]3O[C@@H]5CO[C@@H](C)O[C@H]5[C@H](O)[C@H]3O)[C@H]3COC(=O)[C@H]23)OCO4)cc(OC)c1O [etoposide] + CCN(CC)CCCCNc1ncc2cc(-c3cc(OC)cc(OC)c3)c(NC(=O)NC(C)(C)C)nc2n1 [PD173074] (first compound 0.1 µM, partner dose 0.5 µM) | 113 | 96.1 | 101 | 95 | 87 | 116 | 99.9 | 82.9 | 111 | 92.1 | 89.8 | 80.6 | 123 | 67.5 | 92.5 | 68.5 | 92.2 | 69.4 | 98.1 |  |
| CCN(CC)CCNC(=O)c1c(C)[nH]c(/C=C2\C(=O)Nc3ccc(F)cc32)c1C [sunitinib] + O=c1cc(-c2cccc3c2Sc2ccccc2S3)oc(N2CCOCC2)c1 [KU55933] (first compound 2 µM, partner dose 5 µM) | 46.9 | 65 | 101 | 66.6 | 98.1 | 74.9 | 72.8 | 43.9 | 39.1 | 78.4 | 48.5 | 49.7 | 62 | 38.3 | 89.1 | 46.2 | 50.1 | 85.3 | 43.4 |  |
| CCN(CC)CCNC(=O)c1c(C)[nH]c(/C=C2\C(=O)Nc3ccc(F)cc32)c1C [sunitinib] + COc1ccc2c(c1)CCC1C2CCC2(C)C(NCCCCCCN3C(=O)C=CC3=O)CCC12 [U73122] (first compound 2 µM, partner dose 2 µM) | 43 | 81.4 | 94.6 | 64.4 | 54.2 | 82.1 | 84.4 | 25.5 | 14.1 | 110 | 57.2 | 82.3 | 34.9 | 29.1 | 75.7 | 48.1 | 55.9 | 84.8 | 57.6 |  |
| COc1cc([C@@H]2c3cc4c(cc3[C@@H](O[C@@H]3O[C@@H]5CO[C@@H](C)O[C@H]5[C@H](O)[C@H]3O)[C@H]3COC(=O)[C@H]23)OCO4)cc(OC)c1O [etoposide] + O=C(Nc1ccccc1)c1cc([N+](=O)[O-])ccc1Cl [GW9662] (first compound 0.1 µM, partner dose 10 µM) | 66.5 | 84.1 | 92.7 | 65.4 | 63.9 | 78.5 | 62.8 | 75 | 69 | 86.4 | 41.9 | 65.4 | 74.3 | 77.5 | 67.5 | 68.4 | 72 | 66.5 | 99.4 |  |
| COc1cc([C@@H]2c3cc4c(cc3[C@@H](O[C@@H]3O[C@@H]5CO[C@@H](C)O[C@H]5[C@H](O)[C@H]3O)[C@H]3COC(=O)[C@H]23)OCO4)cc(OC)c1O [etoposide] + COc1ccc(-c2ccc3c(N4CCOCC4)nc(N4C[C@@H](C)O[C@@H](C)C4)nc3n2)cc1CO [KU0063794] (first compound 0.1 µM, partner dose 0.1 µM) | 95.1 | 57.1 | 90.4 | 85 | 60.4 | 73.5 | 61.2 | 77.9 | 79.2 | 99.9 | 64.5 | 62.5 | 76.7 | 64.3 | 80.9 | 92.2 | 81.8 | 54.9 | 94.4 |  |
| CCN(CC)CCNC(=O)c1c(C)[nH]c(/C=C2\C(=O)Nc3ccc(F)cc32)c1C [sunitinib] + COc1cc2ncnc(Nc3ccc(Oc4ccccc4)cc3)c2cc1OC [SrcI1] (first compound 2 µM, partner dose 10 µM) | 7.46 | 60.4 | 71 | 73.5 | 60.6 | 73.5 | 85 | 57.4 | 13.5 | 84.6 | 38.8 | 68.6 | 57.1 | 58.2 | 91.7 | 36 | 39.7 | 67.3 | 49.8 |  |
| C[C@]1(O)C[C@@H](c2nc(-c3ccc4ccc(-c5ccccc5)nc4c3)c3c(N)nccn32)C1 + COc1ccc2c(c1)CCC1C2CCC2(C)C(NCCCCCCN3C(=O)C=CC3=O)CCC12 [U73122] (first compound 2 µM, partner dose 2 µM) | 72.6 | 84.8 | 95.6 | 83.9 | 74.7 | 74.4 | 83.1 | 60.7 | 54.2 | 81.9 | 96.5 | 82 | 74.3 | 74 | 86.9 | 61.8 | 93.9 | 63.3 | 71.1 |  |
| C[C@]1(O)C[C@@H](c2nc(-c3ccc4ccc(-c5ccccc5)nc4c3)c3c(N)nccn32)C1 + CC(C)CCN1c2nc(Nc3cc(F)c(O)c(F)c3)ncc2N(C)C(=O)C1C [BID1870] (first compound 2 µM, partner dose 1 µM) | 59.2 | 59.7 | 99 | 82.4 | 67.9 | 71.8 | 72.6 | 63.2 | 95.2 | 20.2 | 58.7 | 62.4 | 67.1 | 55.6 | 72.4 | 70.6 | 85.6 | 87 | 46.7 |  |
| Cn1cnc2c(F)c(Nc3ccc(Br)cc3Cl)c(C(=O)NOCCO)cc21 [selumetinib] + N#Cc1c(O)c2c(-c3ccc(-c4ccccc4O)cc3)csc2[nH]c1=O [A769662] (first compound 0.075 µM, partner dose 10 µM) | 57.6 | 53.4 | 81.8 | 42.7 | 82 | 82.2 | 72.7 | 67.5 | 125 | 73.2 | 57.8 | 45.7 | 58.1 | 73.6 | 88.7 | 73.4 | 84.9 | 88.7 | 74.8 |  |
| COc1cc([C@@H]2c3cc4c(cc3[C@@H](O[C@@H]3O[C@@H]5CO[C@@H](C)O[C@H]5[C@H](O)[C@H]3O)[C@H]3COC(=O)[C@H]23)OCO4)cc(OC)c1O [etoposide] + CN(C)S(=O)(=O)c1ccc2c(c1)/C(=C/c1cc3c([nH]1)CCCC3)C(=O)N2 [SU6656] (first compound 0.1 µM, partner dose 2 µM) | 71.9 | 64.9 | 84.1 | 70.5 | 99.2 | 87.9 | 91.2 | 77.9 | 89 | 91.4 | 59.1 | 67.1 | 99.1 | 68.3 | 95.1 | 67.9 | 55 | 61.5 | 76 | 73.2 |
| Cn1cnc2c(F)c(Nc3ccc(Br)cc3Cl)c(C(=O)NOCCO)cc21 [selumetinib] + Oc1cc(-c2nc(-c3ccccc3)[nH]c2-c2ccncc2)ccc1Cl [L779450] (first compound 0.075 µM, partner dose 1 µM) | 47 | 47.2 | 73.1 | 54.5 | 73.4 | 72.5 | 62.5 | 61.2 | 69.1 | 82.3 | 25.4 | 7.48 | 52.4 | 49.5 | 72.5 | 51.1 | 38.3 | 53.5 | 33.2 |  |
